Among all 340,000 compounds or so, about 6,900 (2%) were called active. No stated cut-off is given here; in the data, active means inhibition above about 30%; inactive means below that, where a call was filed. The entries are a selection whose mix differs from that of the whole data set. Where no call is shown, the source filed none.

Sequence of UniProt P14416 (P14416 whole entry, looked up): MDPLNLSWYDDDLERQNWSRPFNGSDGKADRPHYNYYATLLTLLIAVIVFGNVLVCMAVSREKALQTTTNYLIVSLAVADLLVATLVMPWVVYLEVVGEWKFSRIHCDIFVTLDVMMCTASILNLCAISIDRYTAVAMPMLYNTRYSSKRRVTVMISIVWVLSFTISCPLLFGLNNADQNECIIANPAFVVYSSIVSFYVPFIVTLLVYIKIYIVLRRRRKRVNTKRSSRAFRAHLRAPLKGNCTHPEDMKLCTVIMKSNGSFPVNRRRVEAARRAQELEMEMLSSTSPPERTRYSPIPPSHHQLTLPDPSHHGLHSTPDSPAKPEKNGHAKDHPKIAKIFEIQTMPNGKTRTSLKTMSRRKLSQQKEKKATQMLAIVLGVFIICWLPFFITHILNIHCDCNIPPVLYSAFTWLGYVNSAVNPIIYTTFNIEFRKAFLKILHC

This experiment has as its target D(2) dopamine receptor (Homo sapiens) (UniProt P14416). Nature of the experiment: HTS Assay for Allosteric Antagonists of the Human D2 Dopamine Receptor: Primary Screen for Antagonists. Further: 0% is about no effect. The conditions noted are these: HEK293 TREx D2 cells, calcium flux, dopamine EC80; at 10 µM; stronger effect = higher value. An outline of the steps:
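In this primary screen, negative modulation is detected by tracking calcium flux after an EC80 dopamine challenge in inducible HEK293 T-REx D2 cells preexposed to test compound for 180 s.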
Take `COc1ccc(OCc2ccc(-c3nc(C#N)c(N4CCC(C(N)=O)CC4)o3)o2)cc1`: the inhibition was -12.8%.
In the case of `O=S(=O)(Nc1ccc(F)cc1F)c1ccc(Br)s1`, the inhibition came to 18.8%.
In the case of `COc1ccc(CCNC(=O)c2cnc3sc(N4CCOCC4)nn3c2=O)cc1OC`, the inhibition is -3.72%.
In the case of `O=C(Nc1cc(-c2nc3cc(Cl)ccc3o2)ccc1Cl)c1cccc2ccccc12`, the inhibition came to 10.1%.
The result for `COc1ccc(CCNC(=O)c2c[nH]n3c(=O)c(Cc4ccccc4Cl)c(C)nc23)cc1OC` reads -12.3%; that for `COc1ccc(C2c3c(n(C)c4ccccc34)C(=O)N2CC(=O)Nc2ccccc2Cl)cc1` (stereo unspecified), -1.73%; that for `O=C(c1ccc(Nc2nc3ccccc3n3nnnc23)cc1)N1CCN(c2ccc(F)cc2)CC1`, -1.29%.
Take `COc1cc(NC(=O)c2cc3nc(-c4ccc(C)cc4)cc(C(F)(F)F)n3n2)cc(OC)c1OC`: the inhibition is -1.37%.
In the case of `CCc1ccc(NC(=O)c2cc(S(=O)(=O)N3CCCCC3)c[nH]2)cc1`, the inhibition came out at 15%.
Regarding `COc1ccc(CNc2n[nH]c(-c3ccco3)n2)cc1OC`, the inhibition is 7.91%.
Consider `O=C(NCCc1ccccc1)c1cc(-c2cccc(Cl)c2)on1`, for which the inhibition was -1.35%.
As for `COc1cc(NC(=O)Cn2c(=O)n(Cc3ccccc3Cl)c(=O)c3cc(OC)c(OC)cc32)cc(OC)c1`, the inhibition was found to be 11.2%.
In the case of `CCCN(C(=O)c1cc2c(=O)n(CC)c3ccccc3c2s1)c1ccccc1F`, the inhibition is 6.18%.
Regarding `CCCc1c(C(=O)OCC)nnc2c(-c3ccccc3)c(C)nn12`, the inhibition was -10.4%.
For the molecule `COc1ccc(CCN2C(=O)N(c3ccc(F)cc3)C(=O)C2CC(=O)Nc2ccccc2)cc1OC` (stereo unspecified), the inhibition is -15.4%.
Then `O=C(Nc1nnc(SCC(=O)N2CCCCC2)s1)c1ccc(F)cc1F`, with active: 55.3%; and `Fc1ccc([C@@H]2Nc3ccccc3[C@@H]3C=CC[C@@H]32)cc1`, with 6.37%; and `Cc1ccc(C)c(NC(=O)CSc2ncc3c(n2)-c2ccccc2N(Cc2ccccc2C)S3(=O)=O)c1`, with -2.9%.
In the case of `COc1ccc(/C=C/c2nc(C#N)c(N3CCCCCC3)o2)cc1OC`, the inhibition turned out to be 0.513%.
In the case of `Cc1nnc(N2CCC(C(=O)N3CCCCC3)CC2)c2nn(-c3ccccc3)c(C)c12`, the inhibition amounted to 8.63%.
Then `COc1ccc(CNS(=O)(=O)c2ccc3c(c2)NC(=O)C(C)C(=O)N3)cc1` (stereo unspecified), with 25.8%; and `CN(CCC#N)C(=O)COC(=O)c1ccc(Cl)cc1O`, with active: 46.6%.
For `Cc1ccc(C)c(S(=O)(=O)Nc2ccc3c(c2)CCCN3C(=O)c2cccs2)c1`, the inhibition is 18.4%.
For `Cc1ccc(C)c(Nc2ncnc3c2cnn3-c2ccc(F)cc2)c1`, the inhibition is -1.61%.
Take `COc1ccc(C)cc1NS(=O)(=O)c1ccc(-c2cnc(C3CC3)o2)cc1`: the inhibition is 5.65%.
Take `CCOC(=O)Cn1nc(C)c(NC(=O)COc2ccc(C)c(C)c2)c1C`: the inhibition is 0.117%.
On to `COc1ccc(-c2cc(C(F)(F)F)nc(SCCC(=O)Nc3ccc(O)cc3)n2)cc1`, for which the inhibition was -7.96%.
As for `CCn1c2ccccc2c2nnc(N3CCN(c4ccc(OC)cc4)CC3)nc21`, the inhibition was -8.44%.
Take `Cc1ccc(NC(=O)C2CCN(c3nc4ccccc4nc3C(F)(F)F)CC2)cc1C`: the inhibition was 2.1%.
For `CCN(CC)C(=O)CSc1cn(CC(=O)N2CCCCCC2)c2ccccc12`, the inhibition was 10.1%.
Take `CCOc1ccc(-n2cc(-c3ccccc3)c3c(NCc4ccc(F)cc4)ncnc32)cc1`: the inhibition is -11.2%.
The result for `CCCN(CCC)S(=O)(=O)c1ccc(N2CCCCS2(=O)=O)cc1` reads 5.93%; that for `Cc1cc(C)cc(N2C(=O)CS(=O)(=O)C23C(=O)N(C)c2ccccc23)c1` (stereo unspecified), 9%.
Regarding `O=C(c1ccco1)N1CCN(CCOCCOc2cccc3ccccc23)CC1`, the inhibition was active: 77.4%.
Consider `CCOC(=O)C1CCCN(Cc2cccc(Oc3ccccc3)c2)C1` (stereo unspecified), for which the inhibition was active: 39.5%.
The result for `CCNC(=S)NC1CC2CCCC(C1)N2Cc1ccc(C)cc1` (stereo unspecified) reads active: 81.6%; that for `COc1ccc(CNc2nc(-c3ccc(Cl)cc3)nn2C(=O)c2ccccc2)cc1`, -5.37%.
Take `CC(C)c1ccc(NC(=O)C2Cc3ccccc3N2C(=O)c2ccccc2)cc1` (stereo unspecified): the inhibition was -1.79%.
Take `Cc1ccc(S(=O)(=O)C2(C(=O)Nc3ccc(C(C)C)cc3)CC2)cc1`: the inhibition stood at 4.76%.
As to `COc1ccccc1CNC(=O)c1ccc(CSc2nc3ccncc3n2Cc2ccccc2C)cc1`, the inhibition amounted to 2.22%.
Turning to `O=C(CCCn1c(=O)[nH]c2cc(Cl)ccc2c1=O)NCCN1CCN(c2ccccc2)CC1`, the inhibition is active: 81.3%.
Regarding `O=c1cc(N2CCOCC2)[nH]c(=O)n1-c1ccc(Cl)cc1`, the inhibition was active: 41.1%.
Turning to `CCCCCc1ccc(-c2ccc(C(=O)Oc3ccc(C(=O)OC)cc3)cc2)nc1`, the inhibition came to 0.0701%.
Then `COc1ccccc1Nc1c2c(nc3ccc(NC(=O)/C=C/c4cc(OC)c(OC)c(OC)c4)cc13)CCCC2`, with -5.57%; and `Cc1ccn2c(Nc3c(C)cccc3C)c(-c3ccc(Cl)s3)nc2c1`, with 13.5%.
Turning to `COC(=O)CN1C(=O)C(C)(C)c2cc(S(=O)(=O)NCc3ccc(Cl)cc3)ccc21`, the inhibition is -3.83%.
In the case of `CCCCN(CCCC)C1=C(C(=O)c2ccccc2)N(CC)S(=O)(=O)c2ccccc21`, the inhibition is -2.79%.
Then `Cc1ccc(-c2nc(-c3cc4cccc(OCc5cccc(F)c5)c4oc3=O)no2)cc1`, with -3.29%.
Take `CCOc1ccc(-n2c(Cc3ccccc3)nnc2SCc2nc(-c3cccs3)no2)cc1`: the inhibition was -7.75%.
As to `COc1ccccc1NS(=O)(=O)c1cccc(C(=O)NC2CCN(Cc3ccccc3)CC2)c1`, the inhibition was active: 101%.
Regarding `O=C(Nc1ccc(Br)cc1)c1ccc(Cl)c(S(=O)(=O)N2CCCCCC2)c1`, the inhibition was -8.38%.
For `COc1cccc(NC(=O)c2sc3nc(C)c(C(=O)Nc4ccc(C)cc4C)c(-c4cccs4)c3c2N)c1`, the inhibition was -1.57%.
Consider `O=C(CC1Oc2ccccc2NC1=O)NCc1ccc(F)cc1` (stereo unspecified), for which the inhibition worked out at 3.59%.
Turning to `C=CC[n+]1c(-c2ccc(Cl)cc2Cl)csc1Nc1c(C)n(C)n(-c2ccccc2)c1=O`, the inhibition is active: 48.9%.
As to `COc1ccc(CC(=O)Nc2nnc3n2CCS3)cc1`, the inhibition was -13.9%.
Regarding `Cc1ccc(CSc2nc3ccsc3c(=O)n2CCC(C)C)cc1`, the inhibition was -3.88%.
Regarding `CCOc1ccccc1OCCN1CCC(Cc2ccccc2)CC1`, the inhibition is active: 64%.
Turning to `CCN1CCN(C(=O)c2ccc3c(c2)N(Cc2ccc(F)cc2)C(=O)c2ccccc2S3(=O)=O)CC1`, the inhibition was 3.65%.
With `CCn1c2c(c(=O)n3ncc(C(=O)Nc4ccc(F)cc4Cl)c13)CN(Cc1ccc(OC)cc1)CC2`, the inhibition is 19.4%.
As to `Cc1c(NC(=O)c2ccc(Cl)cc2)cc(C(C)C)c(O)c1S(=O)(=O)c1ccccc1`, the inhibition was -5.06%.
In the case of `CC1CCN(CCCOc2ccc(Br)cc2Cl)CC1`, the inhibition was active: 46.8%.
Take `O=[N+]([O-])c1cc(CN2CCN(c3cccc(C(F)(F)F)c3)CC2)c2cccnc2c1O`: the inhibition is active: 36.3%.
The result for `COc1ccccc1C(=O)Nc1ccc(OCc2cc(=O)n3cccc(C)c3n2)cc1` reads -10.9%; that for `CCc1ccc(NC(=O)c2ccc3c(O)c(S(=O)(=O)c4ccccc4)c(=O)[nH]c3c2)cc1`, -2.4%.
As for `Cc1c(C(C)NC(=O)Nc2ccc(F)cc2F)cnn1C` (stereo unspecified), the inhibition was active: 38.2%.
Consider `Cc1cc(NC(=O)CSc2nc3c([nH]c4ccccc43)c(=O)n2-c2ccc(Cl)cc2)no1`, for which the inhibition is -15.2%.
Turning to `Cc1cc(=O)n(Cc2ccccc2Cl)c2c1c(C)nn2-c1ccccc1`, the inhibition was 6.09%.
With `COc1ccccc1CNC(=O)CCc1c(C)nn(-c2ccc(N3CCCC3)nn2)c1C`, the inhibition worked out at 8.59%.
As to `O=C(NCC1CCN(Cc2ccccc2Cl)CC1)c1cc2ccc3cccnc3c2[nH]1`, the inhibition stood at 15.5%.
As for `CCC1CN(C(=O)N2CCC(C(=O)NCc3ccco3)CC2)c2cc(C)ccc2O1` (stereo unspecified), the inhibition turned out to be 14.4%.
On to `COc1ccc(CCN(C)Cc2nc(Cc3ccc(OC)c(OC)c3)no2)cc1OC`, for which the inhibition was active: 36.7%.
Take `CC(C)c1nc2ccc(C(=O)NCCCN3CCN(c4ccc(F)cc4)CC3)cc2o1`: the inhibition was -19.1%.
As for `Cn1c(=O)c2c(SCC(=O)N3CCCc4ccccc43)nc(C3CC3)nc2n(C)c1=O`, the inhibition is active: 35.2%.
In the case of `CCCCOc1ccc(CNC(=O)c2cnc3sc(N4CCC(C)CC4)nn3c2=O)cc1`, the inhibition turned out to be 7.37%.
Consider `COc1cccc(-n2c(-c3ccc(C)cc3)cc3c2CC(C)(C)CC3=O)c1`, for which the inhibition was -3.27%.
The result for `Cc1cc(C)c2c(CC(=O)Nc3c(C(=O)c4ccc(F)cc4)oc4ccccc34)coc2c1` reads -8.68%.
In the case of `Cc1ccc2c(c1)CC(C)N2S(=O)(=O)c1nnc(NC(=O)CC(C)C)s1` (stereo unspecified), the inhibition was found to be 22.7%.
For `CC(C)c1ccc2occ(CC(=O)Nc3cccc(C(F)(F)F)c3)c2c1`, the inhibition came out at 0.507%.
In the case of `COc1ccc(OC)c(NC(=O)CCc2c(C)nc3c(c(C)nn3C(C)(C)C)c2C)c1`, the inhibition came out at 0.281%.
Turning to `CCOC(=O)c1cc(OC(=O)c2cccc(Cl)c2)n(-c2ccccc2)n1`, the inhibition is -0.945%.
For the molecule `Cc1ccc(C)c(N2CCN(C(=O)Cn3c(C)c4cnn(-c5ccccc5)c(=O)c4c3C)CC2)c1`, the inhibition is 4.03%.
For `COc1cc(NC(=O)Cn2c(=O)nc(-c3ccccc3F)c3cc(Cl)ccc32)cc(OC)c1`, the inhibition came out at 8.59%.
In the case of `CC1CCCCN1c1nc(-c2ccc(C(C)(C)C)cc2)nc2ccccc12` (stereo unspecified), the inhibition is -17.8%.
As to `CCN(C(=O)Cn1cc(C(=O)c2ccc(F)cc2)c(=O)c2ccc(C)nc21)c1cccc(C)c1`, the inhibition worked out at 2.31%.
With `COC(=O)c1ccccc1NC(=O)Cn1nc(C(F)(F)F)c2c1CCCC2`, the inhibition is -0.759%.
With `CCOc1ccc(C(=O)N2CCC(c3ccncc3)CC2)cc1`, the inhibition came out at 0.262%.
On to `CCOc1ccccc1C(=O)Nc1nnc(COC)s1`, for which the inhibition was -10.5%.
The result for `CCN(CC)S(=O)(=O)c1ccc2c(c1)c(=O)c(C(=O)NCc1ccccc1OC)cn2C` reads 18.9%; that for `Cc1ccc(C(=O)N2CCc3cc(CNC(=O)c4ccnn4C)ccc32)cc1`, -3.31%; that for `O=C1/C(=C/c2ccc(Cl)cc2)SC(=S)N1CCC(=O)N1CCCCC1CCO` (stereo unspecified), active: 31%.
Take `Cc1cn(C)c(CC(=O)N2CCN(c3ccc(F)cc3)CC2)c1C(=O)O`: the inhibition worked out at 1.01%.
Turning to `Cc1cc(NS(=O)(=O)c2c(C)[nH]c(=O)[nH]c2=O)ccc1Br`, the inhibition was active: 40.8%.
Regarding `Cc1ccc(NS(=O)(=O)c2ccc3c(c2)NC(=O)CCS3)cc1F`, the inhibition was found to be 3.19%.
The result for `O=C(NCc1ccc2c(c1)CCN2C(=O)c1ccccc1)c1ccc(Br)o1` reads 12.4%; that for `COc1ccccc1N1CCN(c2cc(C)nc3c(-c4ccc(Cl)cc4)c(C)nn23)CC1`, 15.1%; that for `COc1cccc(-c2[nH]c3c(c2-c2c(-n4cccc4)n(C)c(=O)[nH]c2=O)c(=O)[nH]c(=O)n3C)c1`, -9.99%.
